According to publication PMC7819943, “Rice protein-binding microarrays: a tool to detect cis-acting elements near promoter regions in rice”:
The other results are listed elsewhere or left out.

Each sequence was assayed against T1, OsWOX13 (Oryza sativa, UniProt Q5QMM3 1-267) (assay: protein-binding microarray (RPBM); PBS, 2% BSA, 51.3 ng/ul salmon testes DNA, 50 uM zinc acetate, 200 nM TF, 25 C, 1 h; high values mean tight binding). Details: protein: recombinant; tags: N-terminal polyhistidine and DsRed monomer fusion (pET32a); label: CyDye5-dUTP incorporated in the synthesized complementary strand; 3' TTTTT single-stranded linker to array surface; dsDNA, one strand shown.
T1 sequence: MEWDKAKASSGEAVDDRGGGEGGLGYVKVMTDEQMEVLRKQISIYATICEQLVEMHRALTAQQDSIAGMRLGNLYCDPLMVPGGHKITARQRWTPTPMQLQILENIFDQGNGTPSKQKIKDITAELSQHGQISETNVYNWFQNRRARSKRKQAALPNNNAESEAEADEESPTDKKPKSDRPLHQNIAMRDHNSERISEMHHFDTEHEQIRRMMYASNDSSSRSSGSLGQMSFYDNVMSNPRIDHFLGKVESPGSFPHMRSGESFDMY
Procedure, shortened: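 In PBS with 2% BSA, salmon testes DNA and 50 µM zinc acetate, 200 nM protein was incubated on a custom Agilent array at 25 °C for 1 h and then washed off. The array had been made double-stranded by primer extension with Cy5-dUTP and blocked with 2% BSA. The proteins were transcription factors fused N-terminally to polyhistidine and DsRed, expressed in E. coli BL21-CodonPlus and purified on Ni–NTA. The binding signal is per-feature fluorescence intensity (arbitrary units) from an Axon 4000B scanner.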
In the case of “AGTATATTGAAGGTAATCTGATTTGTGGATCGATAATAAGCGGAGTCACCTAGTGCAG”, the binding signal is reported as 6020 fluorescence intensity (a.u.). With “ATCCTAGATAATTAGGTGTAACATCCTAGAACCAAATCTACGGAGTCACCTAGTGCAG” the binding signal was 6320 fluorescence intensity (a.u.). In the case of “AAGATTGAAGGCAACCAAACCAACAAGGATGGATGCTTCTCGGAGTCACCTAGTGCAG”, the binding signal is reported as 16500 fluorescence intensity (a.u.). “GAAGCCTCAATTATTGCACCAACGATAAGTTCACCTACTTCGGAGTCACCTAGTGCAG” was tested, and the binding signal was 3580 fluorescence intensity (a.u.). In the case of “CATAAACTGATCTCATTTGGTTTTGAGTAAGGCCTGGTTTCGGAGTCACCTAGTGCAG”, the binding signal is reported as 9070 fluorescence intensity (a.u.). “ATCCAAATTTCCCGTTTATGTAGCAATCATGAAGAAGAGCCGGAGTCACCTAGTGCAG” was tested, and the binding signal was 6230 fluorescence intensity (a.u.). With “GAAGGGTTAATTGGATTCATGCCATTATAAATTTGTTCGTCGGAGTCACCTAGTGCAG” the binding signal was 25900 fluorescence intensity (a.u.). With “CTAATACCAATCAAATTAAGCAGCGCAATATCATCGGCGCCGGAGTCACCTAGTGCAG” the binding signal was 9270 fluorescence intensity (a.u.). For “CCGTTGATGGAGATGGCTGTGAGCTCGCCGACGAATTAAGCGGAGTCACCTAGTGCAG”, the binding signal was 5720 fluorescence intensity (a.u.). For “CTCAAATAAATTGGAAAATCCCTCCTTTGCCAAATTTCCTCGGAGTCACCTAGTGCAG”, the binding signal was 23000 fluorescence intensity (a.u.). “AAGACCTATCAATCTGTCAGCTACTACGGTTGTGAGTGAACGGAGTCACCTAGTGCAG” was tested, and the binding signal was 5840 fluorescence intensity (a.u.). In the case of “GCTGTCAGATGTGATTGCCGGGCCCAACGTCGTGTCTTCACGGAGTCACCTAGTGCAG”, the binding signal is reported as 8580 fluorescence intensity (a.u.). With “AGCAATTACAGTTCAAAACAGGGTCAAATAAGCAATTGTCCGGAGTCACCTAGTGCAG” the binding signal was 3470 fluorescence intensity (a.u.). “TTTGGTCAATTGATTTACACATAAATTATGGAGATAATGTCGGAGTCACCTAGTGCAG” was tested, and the binding signal was 33700 fluorescence intensity (a.u.). “ATATATAGTTTGATTGAGTTTGCGTTCGCTGAATCTGGTTCGGAGTCACCTAGTGCAG” was tested, and the binding signal was 11200 fluorescence intensity (a.u.). For “TAATAAACTGATACAGATACTCCTCCACTCGTAAGCGTGGCGGAGTCACCTAGTGCAG”, the binding signal was 9680 fluorescence intensity (a.u.). For “GGATAATTTGGCAATAATGTAGGCCAATGCAGGATCCTGCCGGAGTCACCTAGTGCAG”, the binding signal was 22300 fluorescence intensity (a.u.). “TTAAGTAATTAAGAGGTGATAGTTAATTTATGCATGCATGCGGAGTCACCTAGTGCAG” was tested, and the binding signal was 30400 fluorescence intensity (a.u.). In the case of “AACACGTACTTAATTGATACGAGCGCAGCTCAATCATCAGCGGAGTCACCTAGTGCAG”, the binding signal is reported as 34100 fluorescence intensity (a.u.). For “CTTACCTTAACATTCTTTGCAGATTGGCTAAATCAGAATGCGGAGTCACCTAGTGCAG”, the binding signal was 4320 fluorescence intensity (a.u.). “AGAACTTTCAATTAATTTGTTCCAAGCAATATTAGCATACCGGAGTCACCTAGTGCAG” was tested, and the binding signal was 19000 fluorescence intensity (a.u.). With “AGTGTTGGCAATGATTGGGACAGGCACCAACTTGCAGTTCCGGAGTCACCTAGTGCAG” the binding signal was 8240 fluorescence intensity (a.u.). In the case of “GGAGATGGATTTTAATCACTCGAGTGGACATCCACTCGTTCGGAGTCACCTAGTGCAG”, the binding signal is reported as 3430 fluorescence intensity (a.u.). In the case of “CCGAAAATTGGACCTTAGACTATTGGACCAGAAATTGGACCGGAGTCACCTAGTGCAG”, the binding signal is reported as 17600 fluorescence intensity (a.u.). For “ATGGGGTTATTTTCAAAATTGATTTTGAAAAGGCTTATGACGGAGTCACCTAGTGCAG”, the binding signal was 4790 fluorescence intensity (a.u.). With “GAGATTTGTTTGATGTATCAGGGTGTCACGTTGTCATGTTCGGAGTCACCTAGTGCAG” the binding signal was 3440 fluorescence intensity (a.u.). For “AAGATGAGGTGATAGACTGACTAGCACTGAGCTTGCCCGGCGGAGTCACCTAGTGCAG”, the binding signal was 14400 fluorescence intensity (a.u.). For “TTAACAAAATTATTCATAGCCGTTGACTCTAGATTTTGGCCGGAGTCACCTAGTGCAG”, the binding signal was 3580 fluorescence intensity (a.u.). “ACGCCATGATTGACAATGTGATGCTACAGTAAACATTTGCCGGAGTCACCTAGTGCAG” was tested, and the binding signal was 53900 fluorescence intensity (a.u.). In the case of “AATACAATTTACTCAAATTTAGATCAAAATCAAAACGACTCGGAGTCACCTAGTGCAG”, the binding signal is reported as 4240 fluorescence intensity (a.u.). “GGTCTAATTGGGCCGTTGTCAACCTTGCATCTCAGCCCATCGGAGTCACCTAGTGCAG” was tested, and the binding signal was 14400 fluorescence intensity (a.u.). With “TTTGTGTCAATTAAATTCCACTGTGAGTATGCATATGGAACGGAGTCACCTAGTGCAG” the binding signal was 10400 fluorescence intensity (a.u.). “TGGGAGATTGTATTAAACAGAGGAGAACGATGGCGAAAGGCGGAGTCACCTAGTGCAG” was tested, and the binding signal was 6630 fluorescence intensity (a.u.). “TATAACTGAATGTAAGCACACATGTCCTTTGTGCCGCTGCCGGAGTCACCTAGTGCAG” was tested, and the binding signal was 8060 fluorescence intensity (a.u.). In the case of “GGTAATTGCGTTAATCTGGTCGCTTTCACTTTGTTCTACTCGGAGTCACCTAGTGCAG”, the binding signal is reported as 39300 fluorescence intensity (a.u.). For “CAACGGTTAGATTAGATTGGTACTTCATGGTACATCGTGGCGGAGTCACCTAGTGCAG”, the binding signal was 43200 fluorescence intensity (a.u.). “GAGATAAATTTATTAAGCCTAATTAATCCGTCATTAGAGTCGGAGTCACCTAGTGCAG” was tested, and the binding signal was 3220 fluorescence intensity (a.u.). “TTTTAGCATAATTGAAGAGAGAGATTCTTCAAAATGCCACCGGAGTCACCTAGTGCAG” was tested, and the binding signal was 21600 fluorescence intensity (a.u.). “TTCTTAATTGTATTTCTACATAGACTCTATACTCTACTTCCGGAGTCACCTAGTGCAG” was tested, and the binding signal was 18300 fluorescence intensity (a.u.). For “CTATGTATATAGTTGCTTAATTGACTTGTCATTAGTATGACGGAGTCACCTAGTGCAG”, the binding signal was 8030 fluorescence intensity (a.u.). In the case of “ACTAACGAAATTACTACTTCGTAGGGGTAGGGGTGGCGTGCGGAGTCACCTAGTGCAG”, the binding signal is reported as 4700 fluorescence intensity (a.u.). “CGAATATATACGAATTAATTATATAGTATGCCTACAATAGCGGAGTCACCTAGTGCAG” was tested, and the binding signal was 4710 fluorescence intensity (a.u.).
